Data as given in the supplement of paper PMC4604168 (melanoma cell lines).
The list shows a part of the results. Repeats are few or missing, and single values can be far off.

Key:
Assay in all cases: cell count relative to DMSO control; melanoma cells; higher = more viable cells
Settings in all cases: library dose: standard library concentration; 72 h
G361 = test system: G361
IPC-298 = test system: IPC-298
IST-MEL1 = test system: IST-MEL1
LB2518-MEL = test system: LB2518-MEL
LOXIMVI = test system: LOXIMVI
MEL-HO = test system: MEL-HO
MZ2-MEL = test system: MZ2-MEL
MeWo = test system: MeWo
RPMI7951 = test system: RPMI7951
RVH-421 = test system: RVH-421
SkMel28 = test system: SkMel28
SkMel2 = test system: SkMel2
SkMel30 = test system: SkMel30
SkMel5 = test system: SkMel5
UACC257 = test system: UACC257
UACC62 = test system: UACC62
WM115 = test system: WM115
WM1716 = test system: WM1716
WM1745 = test system: WM1745
WM3526 = test system: WM3526
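Note: cells treated in 1,536-well plates, then fixed and DAPI-stained, with nuclei counted from automated high-throughput microscope images.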

Compound | cell count (G361) [%] | cell count (IPC-298) [%] | cell count (IST-MEL1) [%] | cell count (LB2518-MEL) [%] | cell count (LOXIMVI) [%] | cell count (MEL-HO) [%] | cell count (MZ2-MEL) [%] | cell count (MeWo) [%] | cell count (RPMI7951) [%] | cell count (RVH-421) [%] | cell count (SkMel28) [%] | cell count (SkMel2) [%] | cell count (SkMel30) [%] | cell count (SkMel5) [%] | cell count (UACC257) [%] | cell count (UACC62) [%] | cell count (WM115) [%] | cell count (WM1716) [%] | cell count (WM1745) [%] | cell count (WM3526) [%]
CCN(CC)CCNC(=O)c1c(C)[nH]c(/C=C2\C(=O)Nc3ccc(F)cc32)c1C [sunitinib] + CN1CCN(c2ccc3nc(-c4c(N)c5c(F)cccc5[nH]c4=O)[nH]c3c2)CC1 [Dovitinib] (first compound 2 µM, partner dose 0.5 µM) | 57.9 | 46.3 | 98.5 | 47.9 | 106 | 61.9 | 44.2 | 40.3 | 69.7 | 74.1 | 53.8 | 43 | 57.9 | 48.3 | 89.8 | 36.7 | 59.1 | 78.5 | 32.8 | 50.7
COc1cc([C@@H]2c3cc4c(cc3[C@@H](O[C@@H]3O[C@@H]5CO[C@@H](C)O[C@H]5[C@H](O)[C@H]3O)[C@H]3COC(=O)[C@H]23)OCO4)cc(OC)c1O [etoposide] + Cn1c(Nc2ccc(C(F)(F)F)cc2)nc2cc(Oc3ccnc(-c4ncc(C(F)(F)F)[nH]4)c3)ccc21 [CHIR265] (first compound 0.1 µM, partner dose 0.4 µM) | 35.6 | 36.9 | 81.1 | 30.5 | 72.2 | 63.2 | 29.8 | 58.5 | 52.4 | 43.7 | 35.2 | 37.1 | 55 | 39.9 | 74.9 | 50.5 | 34.1 | 59.1 | 46.9 | 47.7
COc1cc([C@@H]2c3cc4c(cc3[C@@H](O[C@@H]3O[C@@H]5CO[C@@H](C)O[C@H]5[C@H](O)[C@H]3O)[C@H]3COC(=O)[C@H]23)OCO4)cc(OC)c1O [etoposide] + O=C(Nc1cccc(Cl)c1)Nc1ncc(CCNc2ncnc3ccsc23)s1 [SNS314] (first compound 0.1 µM, partner dose 0.004 µM) | 65 | 71.6 | 50.2 | 66.9 | 74.2 | 70.4 | 56.5 | 67.8 | 79.8 | 72 | 45.9 | 64.1 | 68.8 | 79.8 | 76 | 65.4 | 30.8 | 39.6 | 82.6 | 74.3
C[C@]1(O)C[C@@H](c2nc(-c3ccc4ccc(-c5ccccc5)nc4c3)c3c(N)nccn32)C1 + COCC[n+]1c2c(n(Cc3cnccn3)c1C)C(=O)c1ccccc1C2=O [YM155] (first compound 2 µM, partner dose 0.002 µM) | 72.6 | 32.7 | 45 | 29.4 | 88.7 | 75.5 | 22.6 | 34.1 | 38.7 | 87.4 | 36.2 | 38.1 | 71.8 | 28.5 | 34.5 | 61.5 | 61.3 | 46.8 | 72 | 30.1
Cn1cnc2c(F)c(Nc3ccc(Br)cc3Cl)c(C(=O)NOCCO)cc21 [selumetinib] + NC(=O)Nc1cc(-c2cccc(F)c2)sc1C(=O)N[C@H]1CCCNC1 [AZD7762] (first compound 0.075 µM, partner dose 0.1 µM) | 85.4 | 55 | 90.3 | 36.1 | 84.3 | 68.9 | 77.6 | 61 | 31.8 | 85.1 | 17.5 | 45.1 | 44.1 | 84.3 | 109 | 70.6 | 51.4 | 57.5 | 54.8 | 40.4
COc1cc([C@@H]2c3cc4c(cc3[C@@H](O[C@@H]3O[C@@H]5CO[C@@H](C)O[C@H]5[C@H](O)[C@H]3O)[C@H]3COC(=O)[C@H]23)OCO4)cc(OC)c1O [etoposide] + CC1(C)NC(=O)N(c2ccc([N+](=O)[O-])c(C(F)(F)F)c2)C1=O [nilutamide] (first compound 0.1 µM, partner dose 5 µM) | 90.3 | 91.2 | 90.5 | 93.2 | 97.8 | 95.9 | 94.4 | 83.2 | 104 | 78.8 | 71.7 | 78.5 | 90.9 | 78.9 | 92.2 | 65.5 | 60.5 | 63.3 | 84 | 98.1
CCN(CC)CCNC(=O)c1c(C)[nH]c(/C=C2\C(=O)Nc3ccc(F)cc32)c1C [sunitinib] + CN(c1ncccc1CNc1nc(Nc2ccc3c(c2)CC(=O)N3)ncc1C(F)(F)F)S(C)(=O)=O [PF562271] (first compound 2 µM, partner dose 0.4 µM) | 76.1 | 72.8 | 91.5 | 60.9 | 112 | 105 | 97.8 | 75.8 | 65.7 | 81.6 | 34.1 | 70.9 | 80.1 | 43.9 | 85.3 | 70.8 | 55.1 | 82.5 | 25.6 | 72.3
CCN(CC)CCNC(=O)c1c(C)[nH]c(/C=C2\C(=O)Nc3ccc(F)cc32)c1C [sunitinib] + Cc1cc(N2CCOCC2)cc2[nH]c(-c3c(NC[C@@H](O)c4cccc(Cl)c4)cc[nH]c3=O)nc12 [BMS536924] (first compound 2 µM, partner dose 1 µM) | 72.6 | 89.3 | 88.9 | 63.5 | 60.3 | 95.7 | 108 | 54.5 | 45.9 | 79.9 | 80.6 | 54.3 | 74.6 | 48.8 | 86.5 | 50 | 78.7 | 93.2 | 37.1 | 52
Cn1cnc2c(F)c(Nc3ccc(Br)cc3Cl)c(C(=O)NOCCO)cc21 [selumetinib] + COc1ccc(Cl)c(Nc2nc3ccccc3nc2NS(=O)(=O)c2cccc(NC(=O)C(C)(C)N)c2)c1 [XL147] (first compound 0.075 µM, partner dose 4 µM) | 62.7 | 48.3 | 70.7 | 38.2 | 110 | 68.5 | 58.4 | 61.5 | 118 | 87 | 52 | 54.2 | 58.5 | 53.5 | 77.9 | 61.4 | 57.3 | 82.6 | 67.8 | 49.8
CCN(CC)CCNC(=O)c1c(C)[nH]c(/C=C2\C(=O)Nc3ccc(F)cc32)c1C [sunitinib] + Cc1cc(Nc2cc(N3CCN(C)CC3)nc(/C=C/c3ccccc3)n2)n[nH]1 [ENMD2076] (first compound 2 µM, partner dose 0.2 µM) | 104 | 66.2 | 104 | 67.6 | 150 | 87.3 | 124 | 60.1 | 102 | 104 | 68.3 | 56 | 65.3 | 61.6 | 102 | 42.5 | 56.7 | 89.2 | 64.2 | 61.8
CCN(CC)CCNC(=O)c1c(C)[nH]c(/C=C2\C(=O)Nc3ccc(F)cc32)c1C [sunitinib] + Nc1nc(F)nc2c1ncn2[C@@H]1O[C@H](CO)[C@@H](O)[C@@H]1O [fludarabine] (first compound 2 µM, partner dose 1 µM) | 68 | 49.5 | 75.2 | 59.4 | 149 | 65.3 | 74 | 75.2 | 74.9 | 103 | 2.61 | 2.35 | 19.1 | 30.6 | 34.2 | 47.4 | 75.9 | 97.9 | 61.4 | 23.8
C[C@]1(O)C[C@@H](c2nc(-c3ccc4ccc(-c5ccccc5)nc4c3)c3c(N)nccn32)C1 + Cc1cc(N2CCOCC2)cc2[nH]c(-c3c(NC[C@@H](O)c4cccc(Cl)c4)cc[nH]c3=O)nc12 [BMS536924] (first compound 2 µM, partner dose 1 µM) | 96.4 | 104 | 84.8 | 77.9 | 77.3 | 96.3 | 116 | 66.2 | 98.8 | 118 | 91.6 | 74 | 77 | 75.2 | 91.9 | 105 | 99.2 | 104 | 59.6 | 73.8
CCN(CC)CCNC(=O)c1c(C)[nH]c(/C=C2\C(=O)Nc3ccc(F)cc32)c1C [sunitinib] + OCCn1cc(-c2cnc3nnn(Cc4ccc5ncccc5c4)c3n2)cn1 [PF04217903] (first compound 2 µM, partner dose 5 µM) | 80 | 88.7 | 96.3 | 94.5 | 123 | 111 | 112 | 60 | 106 | 83.7 | 63.1 | 79.1 | 77.8 | 54.1 | 84.3 | 73.2 | 72.2 | 78.8 | 71.9 | 58.2
C[C@]1(O)C[C@@H](c2nc(-c3ccc4ccc(-c5ccccc5)nc4c3)c3c(N)nccn32)C1 + O=C(O)c1ccc(-c2c[nH]c3ncc(-c4ccccc4)cc23)cc1C1CCCC1 [GSK650394] (first compound 2 µM, partner dose 0.8 µM) | 71.8 | 91.4 | 85.6 | 92.5 | 101 | 84.1 | 114 | 71.2 | 92.3 | 92.2 | 114 | 80.1 | 100 | 94.8 | 61.9 | 74.2 | 100 | 89.1 | 71 | 67.9
COc1cc([C@@H]2c3cc4c(cc3[C@@H](O[C@@H]3O[C@@H]5CO[C@@H](C)O[C@H]5[C@H](O)[C@H]3O)[C@H]3COC(=O)[C@H]23)OCO4)cc(OC)c1O [etoposide] + C=CCn1c(=O)c2cnc(Nc3ccc(N4CCN(C)CC4)cc3)nc2n1-c1cccc(C(C)(C)O)n1 [MK1775] (first compound 0.1 µM, partner dose 0.1 µM) | 82.6 | 69.8 | 94.3 | 48.6 | 95.3 | 100 | 84.2 | 70.6 | 63.7 | 86.2 | 41.1 | 61.4 | 81.2 | 54.9 | 97.8 | 75.5 | 54.5 | 54.5 | 47.6 | 74.4
COc1cc([C@@H]2c3cc4c(cc3[C@@H](O[C@@H]3O[C@@H]5CO[C@@H](C)O[C@H]5[C@H](O)[C@H]3O)[C@H]3COC(=O)[C@H]23)OCO4)cc(OC)c1O [etoposide] + NCC(=O)Nc1ccc(-n2nc(C(F)(F)F)cc2-c2ccc3c(ccc4ccccc43)c2)cc1 [OSU03012] (first compound 0.1 µM, partner dose 5 µM) | 91.3 | 52.2 | 77.1 | 104 | 76.3 | 77.8 | 77.2 | 93.6 | 109 | 76.4 | 18.2 | 42.2 | 54.2 | 61.9 | 90.9 | 67.6 | 79.5 | 75.5 | 80.9 | 66.1
